PubChem BioAssay AID624417 (National Center for Advancing Translational Sciences (NCATS), 2012)
Hit rate of the full screen: of about 410,000 compounds, about 6,400 (1.6%) were called active. The shares of active, inactive and inconclusive entries below differ from those in the screen. The call rests on the fitted dose curve; in most records, active means well fitted inhibition curve with a large enough effect; inconclusive means small, poorly fitted or top-dose-only effect; inactive means no such curve, though single readings can be large or run the other way. Potencies beside an inconclusive call are fits to weak or partial responses and may not hold up.

Target: Glucagon-like peptide 1 receptor (Homo sapiens) (UniProt P43220)
Experiment: qHTS of GLP-1 Receptor Inverse Agonists (Inhibition Mode); further: nearly all actives have a fitted effect of over 55% in size
Conditions: HEK293 GLP-1R CRE-luciferase, luminescence, 24 h, GLP-1R form is constitutively active; activity change, negative = inhibition: at 38.3 µM (top of the series) unless noted
Procedure, shortened: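 Inverse agonists were sought by their lowering of basal cAMP reporter luciferase output in HEK293 cells stably carrying constitutively active human GLP-1R, after 24 h compound treatment.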
On the % scale 0 is the no-effect control and ±100 the full control effect; potency means the concentration at half of the fitted maximal effect; tags describe the fitted curve by direction and shape.

Sequence of UniProt P43220 (P43220 whole entry, looked up): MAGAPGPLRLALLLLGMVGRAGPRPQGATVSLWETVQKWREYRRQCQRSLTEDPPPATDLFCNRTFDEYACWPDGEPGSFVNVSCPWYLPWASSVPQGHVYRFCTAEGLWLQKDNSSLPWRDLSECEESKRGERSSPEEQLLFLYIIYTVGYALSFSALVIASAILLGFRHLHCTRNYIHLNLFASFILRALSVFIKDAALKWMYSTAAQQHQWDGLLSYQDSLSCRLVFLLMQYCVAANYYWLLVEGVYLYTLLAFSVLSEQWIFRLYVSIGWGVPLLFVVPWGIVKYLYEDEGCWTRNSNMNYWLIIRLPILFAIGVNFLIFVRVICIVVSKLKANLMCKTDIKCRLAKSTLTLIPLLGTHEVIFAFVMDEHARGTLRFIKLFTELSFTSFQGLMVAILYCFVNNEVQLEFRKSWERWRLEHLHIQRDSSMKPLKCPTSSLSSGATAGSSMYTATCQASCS

Row | Structure (SMILES) | Potency | activity change, negative = inhibition
1 | Cc1ccc(Cl)cc1N(C)C(=O)c1noc2c1CCCCC2 | inactive | 
2 | Cc1ccc(/C=N/Nc2nc(C(C)(C)C)cs2)o1 | inconclusive: 12.6 µM [inhibitor, single point] | 
3 | CN(C)c1ccc(N/C=C/C(=O)c2ccco2)cc1 | inconclusive: 28.2 µM [inhibitor, single point] | 
4 | COc1ccc(-n2cc(C(=O)N(C)c3cc(C)ccc3OC)c3ccccc3c2=O)cc1 | inconclusive: 20 µM [inhibitor, single point] | 
5 | Cc1nn(Cc2noc(C(=O)NCc3cccc(F)c3)n2)c(C)c1Br | inconclusive: 11.2 µM [inhibitor, single point] | 
6 | Cc1ccc(NC2=C(NC(=O)c3ccccc3)C(=O)c3ccccc3C2=O)cc1Cl | inconclusive: 15.8 µM [inhibitor, partial curve, poor fit] | 
7 | CNC(=O)C12CC3CC(C1)CC(c1ccc(C)cc1)(C3)C2 | inactive | 
8 | O=C(NCc1ccccc1)C1C(=O)N(Cc2ccccc2)C(=O)C1C1(O)CCCC1 (centres undefined) | inconclusive: 17.8 µM [inhibitor, partial curve, poor fit] | 
9 | CCOC(=O)c1[nH]cc(-c2ccccc2)c1N1CCOCC1 | inconclusive: 14.1 µM [inhibitor, single point] | 
10 | COc1ccc2c(COC(=O)c3cccc(S(=O)(=O)NCC(C)C)c3)cc(=O)oc2c1 | inconclusive: 14.1 µM [inhibitor, single point] | 
11 | Cc1ccc(NC(=S)N(CCCN2CCC(C)CC2)Cc2ccco2)cc1 |  | inconclusive: -34.5% [inhibitor] [at 7.66 µM]
12 | C/C=C/c1ccc(OCCCCNCc2ccco2)c(OC)c1 | inconclusive: 2.51 µM [inhibitor, partial curve, poor fit] | 
13 | CCOC(=O)c1ccc(NC(=S)N2CCSC2c2ccc(Br)cc2)cc1 (centres undefined) | inconclusive: 11.2 µM [inhibitor, partial curve, poor fit] | 
14 | OCCN(Cc1ccccc1)Cc1cccc(C(F)(F)F)c1 | inconclusive: 12.6 µM [inhibitor, single point] | 
15 | Cc1ccc(C2(C)NC(=O)N(CC(=O)Nc3ccccc3N3CCCC3)C2=O)cc1 (centres undefined) | inconclusive: 10 µM [inhibitor, single point] | 
16 | Cc1nc2ccccc2cc1OCc1ccc(F)cc1 | inconclusive: 31.6 µM [inhibitor, single point] | 
17 | COc1ccc(-c2csc(N3CCC(C(N)=O)(N4CCCCC4)CC3)n2)cc1 | inconclusive: 28.2 µM [inhibitor, single point] | 
18 | COc1ccc(-c2cccc(NC(=O)c3ccco3)c2)nn1 | inactive | 
19 | C[C@]12c3[nH]c4cc(-c5ccco5)ccc4c3CCN1C(=O)[C@@H](CC(=O)NCc1cccc(C(F)(F)F)c1)C[C@@H]2C(=O)N1CCCCC1 | inconclusive: 22.4 µM [inhibitor, single point] | 
20 | Cc1ccc(S(=O)(=O)N=Nc2c(O)[nH]c3ccccc23)cc1 | inactive | 
21 | COc1ccc(Cl)cc1-n1c(=S)sc2c(=O)[nH]c(SCC(=O)NCCC(C)C)nc21 | inconclusive: 28.2 µM [inhibitor, single point] | 
22 | Fc1ccc(-c2cn3cc(Cc4ccccc4Cl)sc3n2)cc1 | inconclusive: 10 µM [inhibitor, partial curve, poor fit] | 

Row | Structure (SMILES) | Potency | activity change, negative = inhibition
23 | CCCn1nnc(NC(=O)c2ccc(Cl)cc2Cl)n1 | inactive | 
24 | Cc1cc2ccccc2n1CCNC(=O)c1ccc(F)cc1 | inconclusive: 31.6 µM [inhibitor, single point] | 
25 | NNC(=O)c1cc2ccccc2[nH]1 | inconclusive: 28.2 µM [inhibitor, partial curve, poor fit] | 
26 | C[n+]1c2n(c3ccccc31)N=C(c1ccc(-c3ccccc3)cc1)CS2 | inconclusive: 1.78 µM [inhibitor, partial curve, poor fit] | 
27 | CC(C)Oc1ccc(C(=O)Nc2cccc(S(=O)(=O)N3CCCC3)c2)cc1 | inconclusive: 10 µM [inhibitor, partial curve, poor fit] | 
28 | COC(=O)[C@@H](NCc1cccc(CN[C@H](C(=O)OC)C(C)C)c1)C(C)C | inconclusive: 11.2 µM [inhibitor, single point] | 
29 | CC1=C(c2ccc(C)cc2)S(=O)(=O)N(Cc2ccc(C(=O)Nc3ccccc3C)cc2)C1=O | inconclusive: 8.91 µM [inhibitor, partial curve, poor fit] | 
30 | COc1cc(Cl)ccc1OCc1cc(C(=O)N2CCCCCC2)no1 | inconclusive: 28.2 µM [inhibitor, single point] | 
31 | Cc1ccc(CCNC(=O)c2ccc(CS(=O)(=O)c3ccc(Cl)cc3)o2)cc1 | inactive | 
32 | Cc1ccc(NC(=O)/C(C#N)=C/c2cc(C)n(-c3ccc(Br)cc3)c2C)cc1C | inconclusive: 28.2 µM [inhibitor, single point] | 
33 | CCOc1ccccc1NC(=O)n1ncc2cc(Cl)ccc21 | inactive | 
34 | COc1ccccc1NS(=O)(=O)c1cn(C)cn1 | inactive | 
35 | CN(C)CCNC(=O)c1cccc(-c2cnc3c(NC=O)cc(-c4cccc(C(F)(F)F)c4)cn23)c1 | inconclusive: 7.08 µM [inhibitor, partial curve, poor fit] | 
36 | O=C(Nc1cccc(C(=O)O)c1)/C(=C\c1ccco1)NC(=O)c1ccccc1Cl | inactive | 
37 | Cc1nnc(N2CCN(Cc3ccccc3)CC2)[nH]c1=O | inactive | 
38 | C[C@H]1CN([C@@H](C)CO)S(=O)(=O)c2ccc(Br)cc2O[C@H]1CN(C)Cc1ccccc1F | inconclusive: 28.2 µM [inhibitor, single point] | 
39 | O=C(C1CCCN(S(=O)(=O)c2cccc3nonc23)C1)N1CCN(c2ccccc2Cl)CC1 (centres undefined) | inconclusive: 11.2 µM [inhibitor, partial curve] | 
40 | CCOC(=O)c1ccc(Cl)c(NC(=O)c2ccc(-c3ccccc3)cc2)c1 | inactive | 
41 | Cc1ccc(Nc2cc(C)nc(N3CCOCC3)n2)cc1 | inconclusive: 15.8 µM [inhibitor, partial curve, poor fit] | 
42 | CSCCC(NC(=O)/C(=C/c1ccc(F)cc1)NC(C)=O)C(=O)O (centres undefined) |  | inactive: 5.22% [at 7.66 µM]
43 | CCC(=O)N1CCN(c2ccccc2NC(=O)COc2cccc(C)c2)CC1 | inconclusive: 3.98 µM [inhibitor, partial curve] | 
44 | COc1ccc(CCNC(=O)c2ccc3nc(Cc4ccccc4)oc3c2)cc1OC | inactive | 

Row | Structure (SMILES) | Potency | activity change, negative = inhibition
45 | Cc1ccc(NC(=O)Nc2cc(-c3ccccc3)nn2C)cc1Cl | inconclusive: 10 µM [inhibitor, single point] | 
46 | CCOC(=O)c1sc(=S)n(-c2ccc3c(c2)OCO3)c1N | inconclusive: 28.2 µM [inhibitor, single point] | 
47 | CN1/C(=C\C=C(/C#N)C(=O)Nc2ccc(Cl)cc2)C(C)(C)c2ccccc21 | inactive | 
48 | Cc1ccc(NC(=O)CN(C)C(=O)Cc2c[nH]c3ccccc23)cc1 | inconclusive: 17.8 µM [inhibitor, single point] | 
49 | COc1ccc(NC(=O)c2cnn(-c3ccc(F)cc3F)c2C2CCN(C(=O)OC(C)(C)C)CC2)cc1Cl | inconclusive: 3.98 µM [inhibitor, partial curve, poor fit] | 
50 | COc1ccccc1N1CCN(C(=O)CCc2c[nH]c3ccccc23)CC1 | inconclusive: 28.2 µM [inhibitor, single point] | 
51 | COc1cc(OC)c(OC)cc1CCC(C)NCCC(c1ccccc1)c1ccccc1 (centres undefined) | inconclusive: 12.6 µM [inhibitor, partial curve, poor fit] | 
52 | Cc1ccc(-c2[nH]ncc2C(=O)c2ccccc2C)c(O)c1 | inconclusive: 28.2 µM [inhibitor, single point] | 
53 | Cc1c(C(=O)OCC(=O)NC(=O)NC2CCCCC2)cccc1[N+](=O)[O-] | inconclusive: 28.2 µM [inhibitor, single point] | 
54 | C=CCN1/C(=C(\C#N)C2=NS(=O)(=O)c3ccccc32)N(C)c2ccccc21 | inactive | 
55 | COc1cc(NC(=S)Nc2cccc(C)n2)cc(OC)c1OC | inconclusive: 28.2 µM [inhibitor, single point] | 
56 | O=S(=O)(c1ccc(Br)s1)N1CCN(c2ccc(F)cc2)CC1 | inconclusive: 31.6 µM [inhibitor, partial curve, poor fit] | 
57 | Cc1ccccc1NC(=O)c1c(C)oc2ccc(O)c(CN3CCC(C)CC3)c12 | inconclusive: 28.2 µM [inhibitor, single point] | 
58 | CC1CN(C(=O)c2ccccc2Nc2ccc(SC(F)F)cc2)CC(C)O1 (centres undefined) | inactive | 
59 | Cc1ccc(C(NC(=O)C2CCN(CCOc3ccc(Cl)cc3)CC2)c2ccccn2)cc1 (centres undefined) | inconclusive: 22.4 µM [inhibitor, single point] | 
60 | CCOC(=O)CN1C(=O)Nc2ccc(Br)cc2C1c1ccccc1 (centres undefined) | inconclusive: 11.2 µM [inhibitor, single point] | 
61 | CCOc1ccc(N2C(=O)C3C4C=CC([C@H]5CC45)[C@@H]3C2=O)cc1 (some centres undefined) | inconclusive: 7.94 µM [inhibitor, partial curve, poor fit] | 
62 | O=C(CSc1ccccc1C(=O)NCc1ccccc1)NC1CCCCCCC1 | inconclusive: 11.2 µM [inhibitor, single point] | 
63 | Cc1[nH]c2ccc(F)cc2c1CCN(Cc1ccco1)C(=S)NC(C)(C)C | inconclusive: 28.2 µM [inhibitor, single point] | 
64 | CCOc1ccc(-c2nnc(SCC(=O)Nc3cc(F)ccc3F)o2)cc1 | inconclusive: 10 µM [inhibitor, partial curve, poor fit] | 
